# Assay results taken from publication PMC12350791.
# A number of entries come with more than one value. Only these are listed. An entry can have further records. Some entries list several cross-links; each record is another pair of residues.
# Molecular target: PRPF8 (UniProt Q6P2Q9)
# Test: cross-linking mass spectrometry
# Conditions: DSBSO, in cells or nuclear extract, not told apart
# Sequence of SNW1 (Q13573 whole entry): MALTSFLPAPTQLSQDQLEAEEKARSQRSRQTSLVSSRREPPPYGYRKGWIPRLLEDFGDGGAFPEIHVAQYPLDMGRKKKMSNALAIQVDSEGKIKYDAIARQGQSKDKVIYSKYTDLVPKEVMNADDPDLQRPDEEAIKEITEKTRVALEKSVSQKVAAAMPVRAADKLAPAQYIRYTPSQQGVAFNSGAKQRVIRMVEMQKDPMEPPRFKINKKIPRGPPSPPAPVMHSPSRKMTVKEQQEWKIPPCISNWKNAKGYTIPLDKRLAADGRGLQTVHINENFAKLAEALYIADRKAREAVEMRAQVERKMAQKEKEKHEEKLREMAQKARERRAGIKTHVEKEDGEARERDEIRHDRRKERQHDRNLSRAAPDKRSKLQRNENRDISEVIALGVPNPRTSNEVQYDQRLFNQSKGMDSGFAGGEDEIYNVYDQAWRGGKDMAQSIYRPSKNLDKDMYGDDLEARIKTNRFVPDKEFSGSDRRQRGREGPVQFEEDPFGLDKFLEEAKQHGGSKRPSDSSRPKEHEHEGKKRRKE
# Sequence of SART1 (O43290 whole entry): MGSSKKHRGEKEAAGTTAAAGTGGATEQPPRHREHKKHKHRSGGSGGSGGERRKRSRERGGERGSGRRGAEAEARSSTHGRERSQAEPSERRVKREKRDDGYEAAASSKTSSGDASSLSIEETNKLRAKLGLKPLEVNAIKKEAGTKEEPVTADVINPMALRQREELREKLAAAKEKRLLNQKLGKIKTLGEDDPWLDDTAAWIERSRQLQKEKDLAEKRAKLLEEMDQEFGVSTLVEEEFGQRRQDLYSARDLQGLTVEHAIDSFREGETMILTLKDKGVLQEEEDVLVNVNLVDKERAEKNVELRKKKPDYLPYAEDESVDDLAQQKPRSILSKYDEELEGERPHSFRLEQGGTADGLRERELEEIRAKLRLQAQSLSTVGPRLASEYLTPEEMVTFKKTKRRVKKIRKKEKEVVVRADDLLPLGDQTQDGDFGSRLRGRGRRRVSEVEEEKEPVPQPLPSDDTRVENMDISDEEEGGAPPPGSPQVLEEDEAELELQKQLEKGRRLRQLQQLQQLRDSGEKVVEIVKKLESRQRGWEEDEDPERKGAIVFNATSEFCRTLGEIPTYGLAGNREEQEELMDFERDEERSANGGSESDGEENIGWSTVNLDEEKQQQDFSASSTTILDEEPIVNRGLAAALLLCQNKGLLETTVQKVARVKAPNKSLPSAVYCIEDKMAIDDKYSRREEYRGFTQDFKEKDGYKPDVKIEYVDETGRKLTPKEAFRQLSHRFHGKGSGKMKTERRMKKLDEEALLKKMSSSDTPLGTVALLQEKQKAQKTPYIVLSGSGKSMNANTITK
# Sequence of PRPF6 (O94906 whole entry): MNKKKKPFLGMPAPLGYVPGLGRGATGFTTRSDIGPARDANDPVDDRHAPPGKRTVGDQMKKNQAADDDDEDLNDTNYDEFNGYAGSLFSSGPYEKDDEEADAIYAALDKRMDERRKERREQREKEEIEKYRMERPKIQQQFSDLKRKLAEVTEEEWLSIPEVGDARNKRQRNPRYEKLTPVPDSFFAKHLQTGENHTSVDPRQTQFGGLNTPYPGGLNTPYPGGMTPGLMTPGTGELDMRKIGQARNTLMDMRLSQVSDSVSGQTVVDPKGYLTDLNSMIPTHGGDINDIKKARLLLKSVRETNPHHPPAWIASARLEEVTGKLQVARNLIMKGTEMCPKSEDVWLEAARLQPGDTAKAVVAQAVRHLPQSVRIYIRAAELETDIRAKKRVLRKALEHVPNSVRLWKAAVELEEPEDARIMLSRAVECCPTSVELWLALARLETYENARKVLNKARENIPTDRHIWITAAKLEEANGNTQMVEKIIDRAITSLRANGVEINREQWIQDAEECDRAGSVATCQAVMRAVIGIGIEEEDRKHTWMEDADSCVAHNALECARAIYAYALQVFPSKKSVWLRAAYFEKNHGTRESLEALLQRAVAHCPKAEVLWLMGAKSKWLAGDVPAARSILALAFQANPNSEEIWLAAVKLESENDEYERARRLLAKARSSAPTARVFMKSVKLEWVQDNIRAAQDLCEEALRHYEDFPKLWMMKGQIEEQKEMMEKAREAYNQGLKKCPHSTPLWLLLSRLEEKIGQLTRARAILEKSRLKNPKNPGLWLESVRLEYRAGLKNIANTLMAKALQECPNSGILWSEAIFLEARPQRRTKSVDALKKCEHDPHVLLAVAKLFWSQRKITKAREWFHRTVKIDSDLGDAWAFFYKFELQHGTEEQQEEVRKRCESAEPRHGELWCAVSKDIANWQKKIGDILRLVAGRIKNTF
row,Substance,cross-linked residues
1,"PRPF6, O94906",K137 - K670 and K178 - K727
2,"SNW1, Q13573",K258 - K727 and K266 - K727
3,"SART1, O43290",K657 - K1735 and K666 - K1344
